Data taken from PubChem BioAssay AID624417 (National Center for Advancing Translational Sciences (NCATS), 2012).
The campaign covered roughly 410,000 compounds. About 6,400 (1.6%) were called active. Inconclusive results, whose numbers are uncertain, are shown with a selection of clear calls. Calls come from the whole dose curve; as a rule, active = well fitted inhibition curve with a large enough effect; inconclusive = small, poorly fitted or top-dose-only effect; inactive = no such curve, though single readings can be large or run the other way. No potency is given beside an inconclusive call; the fits are too rough.

Target: Glucagon-like peptide 1 receptor (Homo sapiens) (UniProt P43220)
Sequence of UniProt P43220 (P43220 whole entry, looked up): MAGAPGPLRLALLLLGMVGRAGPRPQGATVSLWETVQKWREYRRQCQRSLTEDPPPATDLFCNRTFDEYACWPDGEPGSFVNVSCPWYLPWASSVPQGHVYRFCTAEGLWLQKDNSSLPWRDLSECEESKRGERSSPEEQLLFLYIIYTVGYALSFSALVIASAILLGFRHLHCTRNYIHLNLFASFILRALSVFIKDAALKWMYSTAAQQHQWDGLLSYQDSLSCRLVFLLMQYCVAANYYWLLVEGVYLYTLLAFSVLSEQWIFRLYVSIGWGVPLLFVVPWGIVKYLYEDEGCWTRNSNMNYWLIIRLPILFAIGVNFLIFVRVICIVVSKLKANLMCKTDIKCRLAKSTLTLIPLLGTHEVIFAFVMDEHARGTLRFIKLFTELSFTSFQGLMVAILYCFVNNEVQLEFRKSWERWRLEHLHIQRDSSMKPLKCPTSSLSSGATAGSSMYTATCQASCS
Assay: qHTS of GLP-1 Receptor Inverse Agonists (Inhibition Mode); note: nearly all actives have a fitted effect of over 55% in size
Details: HEK293 GLP-1R CRE-luciferase, luminescence, 24 h, GLP-1R form is constitutively active; activity change, negative = inhibition: at 38.3 µM (top of the series) unless noted
Summary of the method: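 HEK293 cells stably co-expressing a cAMP-responsive luciferase reporter and constitutively active GLP-1R were seeded, incubated 12 h, then exposed to compounds for 24 h at 37 C. Luminescence was read 12 min after detection reagent; inverse agonists lower signal.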
% is set by controls: 0 for no effect and ±100 for the full control effect; potency is the fitted concentration of half-maximal effect; tags give direction and shape of the fitted curve.

Structure (SMILES) | Potency | activity change, negative = inhibition
COc1cc(OC)nc(Oc2ccccc2C(=O)Oc2ccccc2Cl)n1 | inconclusive [inhibitor, partial curve, poor fit] | 
COc1ccc(C(c2nnnn2-c2ccc(OC)cc2)N2CCN(C/C=C/c3ccccc3)CC2)cc1 (centres undefined) | inconclusive [inhibitor, single point] | 
COc1ccc2cc(C#N)c(SCC(=O)NNC(=O)Cc3ccccc3)nc2c1 |  | inactive: -9.7%
CCCCCCCCN1C(=O)[C@H](CC(=O)NCCCCc2ccccc2)C[C@@]2(C(=O)OC)CCCCC=C12 | inconclusive [inhibitor, partial curve] | 
COc1ccc(S(=O)(=O)N2CCN(C(C)C(=O)Nc3ccc(C(C)C)cc3)CC2)cc1 (centres undefined) | inconclusive [inhibitor, single point] | 
O=C1NN(c2ccccc2)C(=O)/C1=C\c1cccc(OC(=O)c2cccs2)c1 | inconclusive [inhibitor, full curve] | 
Cc1ccccc1C(=O)OCC(=O)N(C)c1ccccc1 | inconclusive [inhibitor, partial curve, poor fit] | 
CSc1ccc(CCNC(=O)c2ccc(CS(=O)(=O)c3ccc(Br)cc3)o2)cc1 | inconclusive [inhibitor, single point] | 
Cc1ccc(NC(=O)C2(C)CCN2C(=O)Cc2ccc(C(C)C)cc2)cc1 (centres undefined) | inconclusive [inhibitor, single point] | 
CCCOC(c1ccccc1)(c1ccc(C(F)(F)F)cc1)C(Oc1nc(C)cc(C)n1)C(=O)O (centres undefined) | inconclusive [inhibitor, partial curve, poor fit] | 
CCOc1ncccc1C(=O)OCc1ccc(Cl)cc1 |  | inactive: 22.4%
CCOc1ccc(C(=O)OCC(=O)NCCCc2ccccc2)cc1 | inconclusive [inhibitor, single point] | 
CC1CCCC(NC(=S)NC(=O)c2ccccc2Br)C1C (centres undefined) | inconclusive [inhibitor, partial curve, poor fit] | 
CCOc1cc(CNC(=O)c2ccc3c(c2)N(C)C(=O)C2CCCCN32)cc(OCC)c1OCC (centres undefined) |  | inactive: 2.76%
COc1cc(/C=C/C(=O)OCc2cn3cc(Cl)ccc3n2)ccc1O | inconclusive [inhibitor, single point] | 
Cc1ccc(CNC(=O)C(=O)NCCC2CCCCN2S(=O)(=O)c2cccs2)cc1 (centres undefined) |  | inconclusive: -38.5% [inhibitor]
CCOC(=O)c1c(-c2ccc(C)cc2)cn2ccccc12 | inconclusive [inhibitor, partial curve] | 
CC(C)N(Cc1ccccc1)C(=O)CN1C(=O)NC(Cc2ccccc2)(c2ccccc2)C1=O (centres undefined) | inconclusive [inhibitor, partial curve, poor fit] | 
NNC(=S)NC1CC2CC1C1C=CCC21 (centres undefined) | inconclusive [inhibitor, partial curve, poor fit] | 
O=c1c(C(c2ccc(O)cc2)c2c(O)nc3n(c2=O)CCS3)c(O)nc2n1CCS2 |  | inactive: 0.0746%
Cc1cccc(N2CC(C)Cn3c2nc2c3c(=O)n(CC(=O)O)c(=O)n2C)c1 (centres undefined) |  | inactive: 19.8%
OC(CN1CCCCC1)Cn1c2ccccc2c2cc(Br)ccc21 (centres undefined) | inconclusive [inhibitor, full curve, poor fit] | 

Structure (SMILES) | Potency | activity change, negative = inhibition
CCCc1cc(CN2CCOCC2)c(O)c(CN2CCOCC2)c1O |  | inactive: -25.1%
CC(C)CN(CC(C)C)c1nnc(NC(=O)Cn2c(=O)oc3ccccc32)s1 | inconclusive [inhibitor, partial curve, poor fit] | 
Cc1nnsc1C(=O)NNc1ccc(Cl)cc1 | inconclusive [inhibitor, single point] | 
Cc1ccc(C)c(OCC(O)CN2CCCCC2C)c1 (centres undefined) | inconclusive [inhibitor, partial curve] | 
CCC(C(=O)OCC(=O)c1ccc2c(c1)NC(=O)CO2)c1ccccc1 (centres undefined) | inconclusive [inhibitor, partial curve, poor fit] | 
C/C(=N\NC(=O)c1ccc(C)cc1C)c1ccc2c(c1)Nc1ccccc1S2 | inconclusive [inhibitor, single point] | 
CC(CCc1ccccc1)NC(=O)COC(=O)c1cccc(N(C)C)c1 (centres undefined) | inconclusive [inhibitor, single point] | 
CC1(C(=O)Nc2cccc(Oc3ccccc3)c2)CCN1C1Cc2ccccc2C1 (centres undefined) | inconclusive [inhibitor, partial curve, poor fit] | 
CCc1ccc(NC(=O)c2ccc(C3SCC(=O)N3CCc3ccccc3)cc2)cc1 (centres undefined) | inconclusive [inhibitor, single point] | 
CCOc1cccc2sc(N(CCCN(C)C)C(=O)c3ccc(S(=O)(=O)N4CCCCCC4)cc3)nc12 | inconclusive [inhibitor, partial curve, poor fit] | 
Cc1cccc(CNC(=O)c2oc3c(c2C)-c2nn(Cc4cccc(Cl)c4)cc2CC3)c1 | inconclusive [inhibitor, partial curve, poor fit] | 
CCN1CCN(C2=C(Cl)C(=O)N(Cc3ccccc3)C2=O)CC1 | inconclusive [inhibitor, single point] | 
CC(C)N1CCC(N2CCN(C3CCCCCC3)CC2CCO)CC1 (centres undefined) | inconclusive [inhibitor, single point] | 
CCCc1nc2ccc(Br)cn2c1Cc1ccccc1OC | inconclusive [inhibitor, single point] | 
CCOC(=O)c1sc(=S)n(C)c1NC(=O)c1cccc(Br)c1 | inconclusive [inhibitor, single point] | 
O=C(CSC1=Nc2ccccc2C2=NC(Cc3ccccc3)C(=O)N12)Nc1ccccc1C(F)(F)F (centres undefined) |  | inactive: 4.87%
Cc1ccc(C(NC(=O)c2ccccc2S(C)(=O)=O)c2ccccc2)cc1 (centres undefined) | inconclusive [inhibitor, single point] | 
Cc1cc(C(=O)CCl)c(C)n1CC1COc2ccccc2O1 (centres undefined) | inconclusive [inhibitor, single point] | 
N#Cc1ccc(OCC(O)CN2CCC(C(O)(c3ccccc3)c3ccccc3)CC2)cc1 (centres undefined) | inconclusive [inhibitor, partial curve, poor fit] | 
O=S(=O)(c1ccccc1)N1N=C(c2ccc(Cl)cc2)CC1c1ccco1 (centres undefined) | inconclusive [inhibitor, partial curve, poor fit] | 
Cc1noc(-c2ccc(N3CCC(C)CC3)c([N+](=O)[O-])c2)n1 |  | inactive: 3.01%
Cc1ccc(OCCn2c(=O)oc3ccc(C)cc32)cc1 | inconclusive [inhibitor, single point] | 

Structure (SMILES) | Potency | activity change, negative = inhibition
O=c1[nH]c(=O)n([C@H]2C[C@H](O)[C@@H](CO)O2)cc1C(F)(F)F | inconclusive [inhibitor, full curve] | 
Fc1cccc(-c2cc3nc4c(c(N5CCOCC5)n3n2)CCCC4)c1 |  | inactive: 0%
O=c1cc(C=NNc2ccc([N+](=O)[O-])cc2)[nH]c(=O)[nH]1 | inconclusive [inhibitor, single point] | 
Cc1cc(Cl)ccc1OC(C)C(=O)NCCc1ccc2c(c1)OCCO2 (centres undefined) | inconclusive [inhibitor, single point] | 
COc1ccc(NC(=O)Nc2ccc3oc(C)nc3c2)cc1 |  | inactive: 8.37%
CCCCCC1=CCC/C1=N\NC(=O)c1ccc2c(c1)OCO2 | inconclusive [inhibitor, single point] | 
O=C(NCc1ccc(F)cc1)N1CCN(C(=O)c2ccccc2)CC1 |  | inactive: 10.5%
CN(C(=O)c1cccc(COc2ccc(Cl)cc2Cl)c1)c1ccccc1 | inconclusive [inhibitor, single point] | 
CN(C)c1ccc(C=c2c3ccccc3n3c2cc(-c2ccccc2)[n+]3C)cc1 | inconclusive [inhibitor, partial curve, poor fit] | 
Cc1ccccc1-c1nc(CS(=O)(=O)CC(=O)Nc2cc(F)ccc2F)c(C)o1 | inconclusive [inhibitor, partial curve, poor fit] | 
CC(=O)c1ccc(NC(=O)c2nc(-c3ccccc3)n(-c3ccc(Cl)cc3)n2)cc1 |  | inactive: 13.9%
O=C(/C=C/c1ccc2c(c1)OCO2)NCCSCc1c(Cl)cccc1Cl | active: 10 µM | 
COc1ccc(CNC(=O)c2ccc(-c3ccccc3)cc2)cc1 |  | inactive: 4.47%
Cc1c(C(=O)Nc2cccc(Cl)c2)c2ccccn2c1CCc1ccncc1 | inconclusive [inhibitor, single point] | 
CCCOC(=O)CSC1=C(C#N)C(c2ccc3c(c2)OCO3)CC(=O)N1 (centres undefined) | inconclusive [inhibitor, single point] | 
CC(=O)N1CCc2cc(Br)cc(S(=O)(=O)N3CCC(C)CC3)c21 |  | inactive: 2.01%
O=C(Nc1ccc2c(c1)OCO2)C1CCCCN1S(=O)(=O)c1ccc(F)cc1 (centres undefined) | inconclusive [inhibitor, single point] | 
Cc1ccc(-n2c(SCC(=O)NCc3ccccc3)nc3n[nH]c(C)c3c2=N)cc1Cl |  | inactive: -17.1%
CCOC(=O)c1cc(C#N)c(N2CCN(C(=O)c3cccc(C(F)(F)F)c3)CC2)nc1C(F)(F)F | inconclusive [inhibitor, partial curve, poor fit] | 
Cc1ccc(S(=O)(=O)N2CCOC2CNC(=O)C(=O)NCc2ccc(Cl)cc2)cc1 (centres undefined) | inconclusive [inhibitor, partial curve, poor fit] | 
